Assay results from the supplement of paper PMC8728848.
This is one part of the list.

Legend:
Assay in all cases: glycan array binding signal (z-score within array); higher = stronger binding
Details in all cases: glycan notation: IUPAC condensed, linker removed
[1] = molecular target: Gal(b1-4)GlcNAc(b1-2)[Gal(b1-4)GlcNAc(b1-6)]Man(a1-6)[Gal(b1-4)GlcNAc(b1-2)Man(a1-3)]Man(b1-4)GlcNAc(b1-4)[Fuc(a1-6)]GlcNAc
Procedure, shortened: (§1)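 Glycan array data were curated from 3228 arrays in the Consortium for Functional Glycomics database and kept only where the protein sequence was available. Glycan names were converted to IUPAC-condensed notation, and columns mapping to the same glycan were averaged. The binding signal is a within-array Z-score, averaged across arrays of the same protein sequence at different concentrations or buffers and across linkers. Negative Z-scores can be read as non-binding.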

[2] = molecular target: Gal(b1-4)GlcNAc(b1-2)[Gal(b1-4)GlcNAc(b1-6)]Man(a1-6)[GlcNAc(b1-4)][Gal(b1-4)GlcNAc(b1-2)Man(a1-3)]Man(b1-4)GlcNAc(b1-4)GlcNAc
Procedure, shortened: as §1

[3] = molecular target: Gal(b1-4)GlcNAc(b1-2)[Gal(b1-4)GlcNAc(b1-6)]Man(a1-6)[GlcNAc(b1-4)][Gal(b1-4)GlcNAc(b1-2)[Gal(b1-4)GlcNAc(b1-4)]Man(a1-3)]Man(b1-4)GlcNAc(b1-4)[Fuc(a1-6)]GlcNAc
Procedure, shortened: as §1

[4] = molecular target: Gal(b1-4)GlcNAc(b1-3)Gal(b1-3)GalNAc
Procedure, shortened: as §1

[5] = molecular target: Gal(b1-4)GlcNAc(b1-3)Gal(b1-3)GlcNAc
Procedure, shortened: as §1

[6] = molecular target: Gal(b1-4)GlcNAc(b1-3)Gal(b1-4)Glc
Procedure, shortened: as §1

[7] = molecular target: Gal(b1-4)GlcNAc(b1-3)Gal(b1-4)GlcNAc
Procedure, shortened: as §1

[8] = molecular target: Gal(b1-4)GlcNAc(b1-3)Gal(b1-4)GlcNAc(b1-2)Man(a1-3)[Gal(b1-4)GlcNAc(b1-3)Gal(b1-4)GlcNAc(b1-2)Man(a1-6)]Man(b1-4)GlcNAc(b1-4)GlcNAc
Procedure, shortened: as §1

[9] = molecular target: Gal(b1-4)GlcNAc(b1-3)Gal(b1-4)GlcNAc(b1-2)Man(a1-3)[Gal(b1-4)GlcNAc(b1-3)Gal(b1-4)GlcNAc(b1-2)Man(a1-6)]Man(b1-4)GlcNAc(b1-4)[Fuc(a1-6)]GlcNAc
Procedure, shortened: as §1

[10] = molecular target: Gal(b1-4)GlcNAc(b1-3)Gal(b1-4)GlcNAc(b1-2)[Gal(b1-4)GlcNAc(b1-3)Gal(b1-4)GlcNAc(b1-6)]Man(a1-6)[Gal(b1-4)GlcNAc(b1-3)Gal(b1-4)GlcNAc(b1-2)Man(a1-3)]Man(b1-4)GlcNAc(b1-4)GlcNAc
Procedure, shortened: as §1

[11] = molecular target: Gal(b1-4)GlcNAc(b1-3)Gal(b1-4)GlcNAc(b1-2)[Gal(b1-4)GlcNAc(b1-3)Gal(b1-4)GlcNAc(b1-6)]Man(a1-6)[Gal(b1-4)GlcNAc(b1-3)Gal(b1-4)GlcNAc(b1-2)Man(a1-3)]Man(b1-4)GlcNAc(b1-4)[Fuc(a1-6)]GlcNAc
Procedure, shortened: as §1

[12] = molecular target: Gal(b1-4)GlcNAc(b1-3)Gal(b1-4)GlcNAc(b1-3)Gal(b1-4)GlcNAc
Procedure, shortened: as §1

[13] = molecular target: Gal(b1-4)GlcNAc(b1-3)Gal(b1-4)GlcNAc(b1-3)Gal(b1-4)GlcNAc(b1-2)Man(a1-3)[Gal(b1-4)GlcNAc(b1-3)Gal(b1-4)GlcNAc(b1-3)Gal(b1-4)GlcNAc(b1-2)Man(a1-6)]Man(b1-4)GlcNAc(b1-4)GlcNAc
Procedure, shortened: as §1

[14] = molecular target: Gal(b1-4)GlcNAc(b1-3)Gal(b1-4)GlcNAc(b1-3)Gal(b1-4)GlcNAc(b1-2)Man(a1-3)[Gal(b1-4)GlcNAc(b1-3)Gal(b1-4)GlcNAc(b1-3)Gal(b1-4)GlcNAc(b1-2)Man(a1-6)]Man(b1-4)GlcNAc(b1-4)[Fuc(a1-6)]GlcNAc
Procedure, shortened: as §1

[15] = molecular target: Gal(b1-4)GlcNAc(b1-3)Gal(b1-4)GlcNAc(b1-3)Gal(b1-4)GlcNAc(b1-2)[Gal(b1-4)GlcNAc(b1-3)Gal(b1-4)GlcNAc(b1-3)Gal(b1-4)GlcNAc(b1-6)]Man(a1-6)[Gal(b1-4)GlcNAc(b1-3)Gal(b1-4)GlcNAc(b1-3)Gal(b1-4)GlcNAc(b1-2)Man(a1-3)]Man(b1-4)GlcNAc(b1-4)[Fuc(a1-6)]GlcNAc
Procedure, shortened: as §1

[16] = molecular target: Gal(b1-4)GlcNAc(b1-3)Gal(b1-4)GlcNAc(b1-3)Gal(b1-4)GlcNAc(b1-3)Gal(b1-4)GlcNAc(b1-2)Man(a1-3)[Gal(b1-4)GlcNAc(b1-3)Gal(b1-4)GlcNAc(b1-3)Gal(b1-4)GlcNAc(b1-3)Gal(b1-4)GlcNAc(b1-2)Man(a1-6)]Man(b1-4)GlcNAc(b1-4)GlcNAc
Procedure, shortened: as §1

[17] = molecular target: Gal(b1-4)GlcNAc(b1-3)Gal(b1-4)GlcNAc(b1-3)Gal(b1-4)GlcNAc(b1-3)Gal(b1-4)GlcNAc(b1-2)Man(a1-3)[Gal(b1-4)GlcNAc(b1-3)Gal(b1-4)GlcNAc(b1-3)Gal(b1-4)GlcNAc(b1-3)Gal(b1-4)GlcNAc(b1-2)Man(a1-6)]Man(b1-4)GlcNAc(b1-4)[Fuc(a1-6)]GlcNAc
Procedure, shortened: as §1

[18] = molecular target: Gal(b1-4)GlcNAc(b1-3)Gal(b1-4)GlcNAc(b1-3)Gal(b1-4)GlcNAc(b1-3)Gal(b1-4)GlcNAc(b1-2)[Gal(b1-4)GlcNAc(b1-3)Gal(b1-4)GlcNAc(b1-3)Gal(b1-4)GlcNAc(b1-3)Gal(b1-4)GlcNAc(b1-6)]Man(a1-6)[Gal(b1-4)GlcNAc(b1-3)Gal(b1-4)GlcNAc(b1-3)Gal(b1-4)GlcNAc(b1-3)Gal(b1-4)GlcNAc(b1-2)Man(a1-3)]Man(b1-4)GlcNAc(b1-4)[Fuc(a1-6)]GlcNAc
Procedure, shortened: as §1

[19] = molecular target: Gal(b1-4)GlcNAc(b1-3)Gal(b1-4)GlcNAc(b1-3)Gal(b1-4)GlcNAc(b1-3)Gal(b1-4)GlcNAc(b1-3)Gal(b1-4)GlcNAc(b1-2)Man(a1-3)[Gal(b1-4)GlcNAc(b1-3)Gal(b1-4)GlcNAc(b1-3)Gal(b1-4)GlcNAc(b1-3)Gal(b1-4)GlcNAc(b1-3)Gal(b1-4)GlcNAc(b1-2)Man(a1-6)]Man(b1-4)GlcNAc(b1-4)GlcNAc
Procedure, shortened: as §1

B1: Gal 8 (Homo sapiens) (protein)
chain: MLSLNNLQNIIYNPVIPYVGTIPDQLDPGTLIVICGHVPSDADRFQVDLQNGSSVKPRADVAFHFNPRFKRAGCIVCNTLINEKWGREEITYDTPFKREKSFEIVIMVLKDKFQVAVNGKHTLLYGHRIGPEKIDTLGIYGKVNIHSIGFSFSSDLQSTQASSLELTEISRENVPKSGTPQLQTVSPSWDLQGHGSETFCSVLWTRVFLEIAFCRPIGLTVASFQSLPFAARLNTPMGPGRTVVVKGEVNANAKSFNVDLLAGKSKDIALHLNPRLNIKAFVRNSFLQESWGEEERNITSFPFSPGMYFEMIIYCDVREFKVAVNGVHSLEYKHRFKELSSIDTLEINGDIHLLEVRSW
In the case of B1, the “glycan array binding signal (z-score)” value [1] is reported as -0.343, the “glycan array binding signal (z-score)” value [2] is reported as -0.348 and the “glycan array binding signal (z-score)” value [3] is reported as -0.343. The “glycan array binding signal (z-score)” value [4] was 0.753, the “glycan array binding signal (z-score)” value [5] was 1.47 and the “glycan array binding signal (z-score)” value [6] was 3.98. The “glycan array binding signal (z-score)” value [7] was 0.951, the “glycan array binding signal (z-score)” value [8] was 1.18 and the “glycan array binding signal (z-score)” value [9] was 3.06. For the same binder, the “glycan array binding signal (z-score)” value [10] was 3.08, the “glycan array binding signal (z-score)” value [11] was 6.42 and the “glycan array binding signal (z-score)” value [12] was 0.814. The “glycan array binding signal (z-score)” value [13] was 2.09, the “glycan array binding signal (z-score)” value [14] was 3.28 and the “glycan array binding signal (z-score)” value [15] was 6.12. For the same binder, the “glycan array binding signal (z-score)” value [16] was 2.5, the “glycan array binding signal (z-score)” value [17] was 3.61 and the “glycan array binding signal (z-score)” value [18] was 5.79. The “glycan array binding signal (z-score)” value [19] was 3.28.
